± gives the standard deviation of the averaged measurements. Some of the results follow.
Tested on: PfAP2-LT AP2 domain (GST-tagged)
Experiment: gcPBM binding intensity (ln(normalized median fluorescence intensity)); higher = stronger DNA binding
Outline: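 The highest Masliner-normalised natural-log median intensity across replicate spots of either probe orientation is reported as binding intensity. GST-tagged P. falciparum DNA-binding domains expressed in E. coli were applied for 1 h to an Agilent 4 × 180k array of primer-extended double-stranded 36-bp intergenic genomic probes plus negative controls, and bound protein was detected with Alexa488 anti-GST antibody and scanned at 488 nm.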

Sequence	gcPBM binding intensity (ln)
GATTTTCATATTTTTTGTACTTACATTTTTCTATAC [XGTACX_site6002]	9.02 ± 0.45
TATGTGATATATTTATCACACATTATATATATATAT [CACACA_site5103]	8.97 ± 0.16
GGCATACACAGACACACACACACACCCACATATATA [CACACA_site591]	10.2 ± 0.28
TAATTATCACATTGCACACACATTTCCTTTTACATT [CACACA_site3443]	9.44 ± 0.28
AATAAATAAATAAGTACACACATATATATATATATA [CACACA_site284]	9.87 ± 0.29
AAAAGAATGAAACATAATAAATTACATTAAAATAAT [CACACA_negctrl_site897]	8.76 ± 0.62
ATTTTTTTATTTTGTGCACACACATAAAAATATATA [CACACA_site762]	9.04 ± 0.49
TCTATTTTTCTAATTTGTACATAGCTTTGAGTTAGT [XGTACX_site8977]	8.8 ± 0.43
AACTTATTAAGCCCTCCACATTTCTCTACTACAACT [CACACA_negctrl_site1552]	8.88 ± 0.43
AGATAAAATATATACACACACATAAATACGTACAAA [CACACA_site1086]	9.51 ± 0.29
AACTTCTTTTTTATAACACACAAAATATATATACAA [CACACA_site282]	8.76 ± 0.35
TTTTTTTTTTGTAATTGTACTTTTTTAATACTTCTA [XGTACX_site4195]	8.55 ± 0.52
TATACATATATATACACACACATATATATATATATA [CACACA_site4]	9.8 ± 0.16
TATATATATATATTCACACATAAATATATGCACCCA [CACACA_site4263]	9.26 ± 0.24
ATTTTTGTGACTAAGACATGCATAAGAGTAAAGAAA [TGCATGCA_site619]	8.68 ± 0.43
ACATATATTATATAACGTACATAACACTATTTCCTT [XGTACX_site6938]	8.83 ± 0.48
ATCTAAACCTTTTGAGCACACATATATATATATATA [CACACA_site8526]	9.71 ± 0.19
TAATATCATTTAGACACACACTCTTACAATCTGTAA [CACACA_site2590]	9.02 ± 0.38
AATCATTTATGGAAAGCATGCTAAATTAGAGTATAC [TGCATGCA_site172]	8.87 ± 0.4
ATGGGGAATAATGAATGTACACAAATAAAAAGTTGG [XGTACX_site4015]	8.88 ± 0.67
TAATTTTTTTAAAACACACAAATATGTAAATATGTA [CACACA_site7769]	8.55 ± 0.41
TAAAAATAAAAATAACGTACATACATACTTATATAT [XGTACX_site3745]	8.61 ± 0.4
TAAGTCGCCAAAAGGTGTACACATAATGCATTATCA [XGTACX_site8852]	9.03 ± 0.36

Sequence	gcPBM binding intensity (ln)
AGTATAGTTATAAATTGTACATATTATTTATTTTAT [XGTACX_site949]	8.7 ± 0.39
ATAGAACTGAATAAATCTATAAATAAATATATATAT [GTGCAC_negctrl_site604]	8.62 ± 0.49
TATTATAATGACTATAGTACATAATATTATTTATAT [XGTACX_site1977]	8.62 ± 0.4
CTCCACAAACAAATCGCACACCCAACCCAACATATA [CACACA_site2650]	9.68 ± 0.34
AATAAATATAAATACACACCCATATATATATATATA [CACACA_site5436]	9.59 ± 0.4
TTAAAAAAAAAAAAAAGTACACACTTATAAAATATT [XGTACX_site1630]	8.62 ± 0.47
ACCAATAAATATTTGGTGCATACATATATATATATA	9.425 ± 0.021
TCATACCTACATAAAAAAAGGGAAACAAAATGTCAT [XGTACX_negctrl_site34]	8.7 ± 0.4
CTAAATAAAGTTAACACACACATAATATTTATATGT [CACACA_site6368]	9.22 ± 0.36
TACATAAACATTTATACACACATTAGATATACATAT [CACACA_site6329]	9 ± 0.37
TCAAAGAGTAGAAAGGTGCTTATGAACGAGATAATT	8.88 ± 0.49
TATTATAATTTTATATGTACACATATATAAATATAT [XGTACX_site4054]	8.7 ± 0.33
TTTTACATATATATATGTACGAAAATGAAAAGGTCA [XGTACX_site5576]	8.78 ± 0.35
AAAGTTACATTCGACACACACATAACAACTAAATAA [CACACA_site3419]	9.32 ± 0.38
TTTATTTATTAATACACACACACACCCCCACAAAAT [CACACA_site240]	10.1 ± 0.22
ACAAGAACAGAACGTACACACACATATATATATATA [CACACA_site9143]	10.175 ± 0.0071
ACCTAATTTTTATATTGTACATAATATAATATATAT [XGTACX_site1715]	8.95 ± 0.32
ACCTACACAAGCATTAAACACACAAAAGGGATACTT [CACACA_site8273]	9.22 ± 0.4
AACTAAATTTATAATTGTACATTAAAATATGTATTA [XGTACX_site479]	8.54 ± 0.51
ACATATACATTTATATGTACTCATTTATCTTATGTA [XGTACX_site6594]	8.99 ± 0.42
TTTTTTAAAACTTCAAAAAGAGCACTTGAATTTTTT [GTGCAC_negctrl_site455]	8.11 ± 0.59
AAATATTACATACACGCACACATTAATATATTTAAA [CACACA_site2603]	9.15 ± 0.36

Reference: the supplement of paper PMC11417369
